The other results are listed elsewhere or left out.

The test concerns the target T1, OsWOX13 (Oryza sativa, UniProt Q5QMM3 1-267).
T1 sequence: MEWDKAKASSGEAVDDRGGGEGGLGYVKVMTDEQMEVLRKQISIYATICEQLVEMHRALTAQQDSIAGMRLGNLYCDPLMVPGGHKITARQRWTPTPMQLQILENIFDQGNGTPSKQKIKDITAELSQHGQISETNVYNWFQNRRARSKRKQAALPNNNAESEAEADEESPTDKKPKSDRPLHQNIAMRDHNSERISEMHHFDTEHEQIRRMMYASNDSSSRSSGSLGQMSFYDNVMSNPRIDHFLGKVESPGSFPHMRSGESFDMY
Put plainly: protein-binding microarray (RPBM); PBS, 2% BSA, 51.3 ng/ul salmon testes DNA, 50 uM zinc acetate, 200 nM TF, 25 C, 1 h; high values mean tight binding. Conditions: protein: recombinant; tags: N-terminal polyhistidine and DsRed monomer fusion (pET32a); label: CyDye5-dUTP incorporated in the synthesized complementary strand; 3' TTTTT single-stranded linker to array surface; dsDNA, one strand shown. In outline: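 Binding signal is defined as the fluorescence intensity of each feature in arbitrary units, read on an Axon 4000B scanner. Transcription factors with N-terminal polyhistidine and DsRed fusions came from E. coli BL21-CodonPlus and were purified on Ni–NTA. They were incubated at 200 nM for 1 h at 25 °C on a custom Agilent array that had been made double-stranded with Cy5-dUTP, with 50 µM zinc acetate present, and the array was washed.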
Consider “CTTTAATTTCTATCCTGATCCATTAAGCGAGTGGTCTCAACGGAGTCACCTAGTGCAG”, for which the binding signal is 13700 fluorescence intensity (a.u.). The result for “TGGTAATAGAATAGTTTGGTGTACTTCTGTTTGGTGATGACGGAGTCACCTAGTGCAG” reads 3150 fluorescence intensity (a.u.); that for “GCGCTGATGAGTGATGACACGCGACAGCGAATCCGGCCGCCGGAGTCACCTAGTGCAG”, 9110 fluorescence intensity (a.u.); that for “ATATGATTATTTGTACCCTCAAAAGAATATATGATTATTTCGGAGTCACCTAGTGCAG”, 10300 fluorescence intensity (a.u.). The result for “TTAAAATTAATTATATTTTCCCCTGTTCTGTTTGAGCATTCGGAGTCACCTAGTGCAG” reads 43900 fluorescence intensity (a.u.); that for “GGGTCATGAATTAGATTGGTCACTTTTGAGGGTCCTGAAGCGGAGTCACCTAGTGCAG”, 11000 fluorescence intensity (a.u.); that for “GATAGATTGATGGATAAGGTGGACCTGTATGGGCTGAATCCGGAGTCACCTAGTGCAG”, 41100 fluorescence intensity (a.u.). The result for “TATACAGCTAATTAAGTATGTGAGTGCAGTGAAAGAGAGGCGGAGTCACCTAGTGCAG” reads 8690 fluorescence intensity (a.u.); that for “AACACAGTAACTTAATTAATATCACATCTGCACCCATATGCGGAGTCACCTAGTGCAG”, 7800 fluorescence intensity (a.u.). Regarding “AGGCACATAAACTTGTTTGATTGTTGTGCAAAAGACTTGACGGAGTCACCTAGTGCAG”, the binding signal is 3910 fluorescence intensity (a.u.). The result for “GTACTGACAAAATTTTATGTTGTTTATGTTAATCTACAGTCGGAGTCACCTAGTGCAG” reads 4650 fluorescence intensity (a.u.). For “AAGACGTGATGTTGTTGATTTCCATGTAACATTTGATGATCGGAGTCACCTAGTGCAG”, the binding signal was 3860 fluorescence intensity (a.u.). Regarding “GCACAATCATGCTACTAATTACCCTTTTCAACCTATAAATCGGAGTCACCTAGTGCAG”, the binding signal is 11200 fluorescence intensity (a.u.). In the case of “CTAAGTATAAATGCAATGTAATTGGGTATAACTACAAGTTCGGAGTCACCTAGTGCAG”, the binding signal was 4420 fluorescence intensity (a.u.). As to “CTGTGATTTCCTTTTACTTTTATTTTCCGAACCAAAATAACGGAGTCACCTAGTGCAG”, the binding signal is 18300 fluorescence intensity (a.u.). As for “CTCATAGTAATTAATATTTGGCCTTTGTGTTAATTCAGCTCGGAGTCACCTAGTGCAG”, the binding signal is 7850 fluorescence intensity (a.u.). The result for “ACCGTTGGATTTAATTACTAATAGGTACTGTTGTTATGAACGGAGTCACCTAGTGCAG” reads 3650 fluorescence intensity (a.u.); that for “GAAAATTAGATTTAATTTCAACTTGGCTTGGGTGGATGGACGGAGTCACCTAGTGCAG”, 49500 fluorescence intensity (a.u.); that for “GATAGACTGCAAATCTGTAACAGGAGCATCAACAAAGTAGCGGAGTCACCTAGTGCAG”, 12500 fluorescence intensity (a.u.). The result for “AGAAATGGTTATGATTAGTTGAGATAGGAAAATAGGTGAACGGAGTCACCTAGTGCAG” reads 8960 fluorescence intensity (a.u.); that for “TTGGATTGGTCATATCCTGTATATAGCAATATTTTGGAATCGGAGTCACCTAGTGCAG”, 3290 fluorescence intensity (a.u.). As to “TTAACAAGATATATTGATATGTGATATACCCACTAGACAACGGAGTCACCTAGTGCAG”, the binding signal was 8580 fluorescence intensity (a.u.). As to “CCTTGCAACCATTTCAATCACCACACAACAATCCAACAAACGGAGTCACCTAGTGCAG”, the binding signal was 5850 fluorescence intensity (a.u.). As to “ATGATAATTAGTAGTAGTACTCTATTATGAACACAATAAACGGAGTCACCTAGTGCAG”, the binding signal was 10800 fluorescence intensity (a.u.).

As for “AACAAATTTGACTTATGTAGCAAGTAATAAGTAGTAACCGCGGAGTCACCTAGTGCAG”, the binding signal is 11300 fluorescence intensity (a.u.). As to “ATGTTACAAATTAGATTATTCCATATGCGTGACATATCTACGGAGTCACCTAGTGCAG”, the binding signal was 9300 fluorescence intensity (a.u.). “GTAAAGATTGAAGGCCTGACCGAGGAGAATGTGAAGCTAACGGAGTCACCTAGTGCAG”: the binding signal was 9570 fluorescence intensity (a.u.).

Regarding “AAACGTTGACAGATTTGGCCCTCTCCCACACGAATGCTGCCGGAGTCACCTAGTGCAG”, the binding signal is 18400 fluorescence intensity (a.u.). As to “ACAAAATCAATTACGAGCGCACAAGGAAAATAAAAGAAGTCGGAGTCACCTAGTGCAG”, the binding signal was 8800 fluorescence intensity (a.u.). Regarding “CCATATCAATCTCATATAAACTGGATTAGGGCTATTACCTCGGAGTCACCTAGTGCAG”, the binding signal is 23100 fluorescence intensity (a.u.). Under “TTTTGTTTATCAGTTTGTGATTTAATTCCGTTTTCGCCTACGGAGTCACCTAGTGCAG” stands 7150 fluorescence intensity (a.u.); under “GATAAATTGAGGGACCTAGAGAGAGAACTTATTCATTTTACGGAGTCACCTAGTGCAG”, 3330 fluorescence intensity (a.u.); under “GAAGGGGTGATTATTATCAAGCGGTGACCCTTATTGGTGTCGGAGTCACCTAGTGCAG”, 4290 fluorescence intensity (a.u.). Regarding “TGAAACACAATCAAATCATCTCATAAAACATTTTGTTACACGGAGTCACCTAGTGCAG”, the binding signal is 4620 fluorescence intensity (a.u.). As to “CAAGATTGTGACTCTGACCAGTAACACCGGCACACTTGCACGGAGTCACCTAGTGCAG”, the binding signal is 4930 fluorescence intensity (a.u.). The result for “TATTAACATCAGTGGTAATTAATTAAGCATCTCCAATCAACGGAGTCACCTAGTGCAG” reads 10200 fluorescence intensity (a.u.); that for “ATAGATTGAATTATACTTGAAAGTATAACTGTGTCAGATACGGAGTCACCTAGTGCAG”, 21500 fluorescence intensity (a.u.). With “ACTATAGTGTAATTACGGTGTAACTATATAAGTACACTTACGGAGTCACCTAGTGCAG”, the binding signal was 3740 fluorescence intensity (a.u.). With “GGGGATTAATGGATTATAATGTGTCTTATAACTAAAAGGACGGAGTCACCTAGTGCAG”, the binding signal was 15100 fluorescence intensity (a.u.). The result for “TGTATTATGATTAATTGGACCAATTGGTTTCGATGGAATACGGAGTCACCTAGTGCAG” reads 39800 fluorescence intensity (a.u.); that for “ATCTCGTTTTAGGCTAATTAACAGGTTTTGGAGCCTTCCTCGGAGTCACCTAGTGCAG”, 4930 fluorescence intensity (a.u.).

In the case of “TTAACAATTATTAGTCCACACAAAAGATCTATAATTATGGCGGAGTCACCTAGTGCAG”, the binding signal was 7900 fluorescence intensity (a.u.).

The record behind these values is PMC7819943, “Rice protein-binding microarrays: a tool to detect cis-acting elements near promoter regions in rice”.
